# The supplement of paper PMC4967469
# IC50 is the fitted dose that halves viability relative to control wells, and lower means more sensitive; fits outside the tested doses are given as limits. The AUC spans the tested range (256-fold, ending at the top dose) of the same fit; the more sensitive the line, the further below 1. A top dose marked as inferred comes from the curve model; the source does not state it.
# Compound: CCc1nc(-c2cccc(C)c2)c(-c2ccnc(NC(=O)c3ccccc3)c2)s1 [TAK-715]
# Experiment: Viability of human cancer cell lines after 72 h of drug (GDSC screen)
# Details: top dose inferred
# Description: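 Human cancer cell lines in 384-well plates, medium with 10% serum, drug for 72 h over a 256-fold dose range (nine 2-fold or five 4-fold steps up to the top dose). Adherent lines were fixed and stained with the nucleic acid dye Syto60, suspension lines read with resazurin; signal relative to control wells, capped at 0 and 100%. One two-parameter sigmoid per drug and line, fitted in a mixed model over all curves with the slope shared within a line.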
Cell Line,AUC,IC50 [µM]
"SCC90 (head and neck, adherent, top dose 20 µM)",0.981,> 20
"SCC-3 (B-cell lymphoma, suspension, top dose 20 µM)",0.938,17.8
"SCC-4 (head and neck, adherent, top dose 20 µM)",0.982,> 20
"SCC-9 (head and neck, adherent, top dose 20 µM)",0.827,17
"SCC-15 (head and neck, adherent, top dose 20 µM)",0.947,> 20
"SCC-25 (head and neck, adherent, top dose 20 µM)",0.85,18.4
"SCH (stomach, adherent, top dose 20 µM)",0.965,> 20
"SF126 (glioma, adherent, top dose 20 µM)",0.968,> 20
"SF268 (glioma, adherent, top dose 20 µM)",0.94,> 20
"SF295 (glioma, adherent, top dose 20 µM)",0.954,> 20
"SF539 (glioma, adherent, top dose 20 µM)",0.973,> 20
"SH-4 (melanoma, adherent, top dose 20 µM)",0.942,> 20
"SHP-77 (small cell lung carcinoma, semi-adherent, top dose 20 µM)",0.942,> 20
"SIG-M5 (acute myeloid leukaemia, suspension, top dose 20 µM)",0.88,12.1
"SIMA (neuroblastoma, adherent, top dose 20 µM)",0.947,> 20
"SISO (cervix, adherent, top dose 20 µM)",0.97,> 20
"SJRH30 (rhabdomyosarcoma, adherent, top dose 20 µM)",0.896,> 20
"SJSA-1 (bone, adherent, top dose 20 µM)",0.964,> 20
"SK-CO-1 (large intestine, adherent, top dose 20 µM)",0.988,> 20
"SK-ES-1 (Ewing sarcoma, semi-adherent, top dose 20 µM)",0.936,> 20
"SK-GT-4 (oesophagus, adherent, top dose 20 µM)",0.972,> 20

Cell Line,AUC,IC50 [µM]
"SK-HEP-1 (liver, adherent, top dose 20 µM)",0.968,> 20
"SK-LMS-1 (soft tissue, adherent, top dose 20 µM)",0.91,> 20
"SK-LU-1 (lung adenocarcinoma, adherent, top dose 20 µM)",0.959,> 20
"SK-MEL-1 (melanoma, suspension, top dose 20 µM)",0.958,> 20
"SK-MEL-2 (melanoma, adherent, top dose 20 µM)",0.955,> 20
"SK-MEL-3 (melanoma, adherent, top dose 20 µM)",0.963,> 20
"SK-MEL-5 (melanoma, adherent, top dose 20 µM)",0.938,> 20
"SK-MEL-24 (melanoma, adherent, top dose 20 µM)",0.946,> 20
"SK-MEL-28 (melanoma, adherent, top dose 20 µM)",0.983,> 20
"SK-MEL-30 (melanoma, adherent, top dose 20 µM)",0.947,> 20
"SK-MES-1 (lung squamous cell carcinoma, adherent, top dose 20 µM)",0.895,> 20
"SK-MG-1 (glioma, adherent, top dose 20 µM)",0.987,> 20
"SK-MM-2 (myeloma, suspension, top dose 20 µM)",0.868,19.7
"SK-N-AS (neuroblastoma, adherent, top dose 20 µM)",0.952,> 20
"SK-N-DZ (neuroblastoma, adherent, top dose 20 µM)",0.942,> 20
"SK-N-FI (neuroblastoma, adherent, top dose 20 µM)",0.943,> 20
"SK-N-SH (neuroblastoma, adherent, top dose 20 µM)",0.948,> 20
"SK-OV-3 (ovary, adherent, top dose 20 µM)",0.884,> 20
"SK-PN-DW (Ewing sarcoma, adherent, top dose 20 µM)",0.936,> 20
"SK-UT-1 (soft tissue, adherent, top dose 20 µM)",0.973,> 20
"SKG-IIIa (cervix, adherent, top dose 20 µM)",0.97,> 20

Cell Line,AUC,IC50 [µM]
"SKN (uterus, adherent, top dose 20 µM)",0.949,> 20
"SKN-3 (head and neck, adherent, top dose 20 µM)",0.983,> 20
"SLVL (B-cell lymphoma, suspension, top dose 20 µM)",0.78,8.7
"SN12C (kidney, adherent, top dose 20 µM)",0.944,> 20
"SNB75 (glioma, adherent, top dose 20 µM)",0.974,> 20
"SNG-M (endometrium, adherent, top dose 20 µM)",0.918,> 20
"SNU-61 (large intestine, adherent, top dose 20 µM)",0.949,> 20
"SNU-81 (large intestine, adherent, top dose 20 µM)",0.94,> 20
"SNU-175 (large intestine, suspension, top dose 20 µM)",0.837,12.2
"SNU-182 (liver, adherent, top dose 10.24 µM)",0.944,> 10.2
"SNU-387 (liver, adherent, top dose 20 µM)",0.984,> 20
"SNU-398 (liver, adherent, top dose 20 µM)",0.832,13.5
"SNU-407 (large intestine, adherent, top dose 20 µM)",0.919,> 20
"SNU-423 (liver, adherent, top dose 20 µM)",0.905,> 20
"SNU-449 (liver, adherent, top dose 20 µM)",0.81,11.7
"SNU-475 (liver, adherent, top dose 20 µM)",0.978,> 20
"SNU-1040 (large intestine, adherent, top dose 20 µM)",0.822,17.4
"SNU-C1 (large intestine, suspension, top dose 20 µM)",0.955,> 20
"SNU-C2B (large intestine, adherent, top dose 20 µM)",0.895,> 20
"SNU-C5 (large intestine, adherent, top dose 20 µM)",0.946,> 20
"SR (lymphoid neoplasm, suspension, top dose 20 µM)",0.879,17

Cell Line,AUC,IC50 [µM]
"ST486 (Burkitt lymphoma, suspension, top dose 20 µM)",0.842,11.8
"STS-0421 (soft tissue, adherent, top dose 20 µM)",0.96,> 20
"SU8686 (pancreas, adherent, top dose 20 µM)",0.965,> 20
"SU-DHL-1 (anaplastic large cell lymphoma, suspension, top dose 20 µM)",0.918,14.7
"SU-DHL-4 (B-cell lymphoma, suspension, top dose 20 µM)",0.99,> 20
"SU-DHL-5 (B-cell lymphoma, suspension, top dose 20 µM)",0.88,12.1
"SU-DHL-6 (B-cell lymphoma, suspension, top dose 20 µM)",0.876,11.5
"SU-DHL-8 (B-cell lymphoma, suspension, top dose 20 µM)",0.823,10.7
"SU-DHL-10 (B-cell lymphoma, suspension, top dose 20 µM)",0.677,3.35
"SU-DHL-16 (B-cell lymphoma, suspension, top dose 20 µM)",0.903,13.4
"SUIT-2 (pancreas, adherent, top dose 20 µM)",0.92,> 20
"SUP-B15 (lymphoblastic leukaemia, suspension, top dose 20 µM)",0.699,4.41
"SUP-HD1 (Hodgkin lymphoma, suspension, top dose 20 µM)",0.868,16.8
"SUP-M2 (anaplastic large cell lymphoma, suspension, top dose 20 µM)",0.896,14.3
"SUP-T1 (T-cell lymphoblastic leukaemia, suspension, top dose 20 µM)",0.688,3.97
"SW13 (adrenal gland, adherent, top dose 20 µM)",0.966,> 20
"SW48 (large intestine, adherent, top dose 20 µM)",0.944,> 20
"SW156 (kidney, adherent, top dose 20 µM)",0.941,> 20
"SW620 (large intestine, adherent, top dose 20 µM)",0.852,12.8
